Reference: PubChem BioAssay (NCATS)
This list was built around the results that the source calls inconclusive (neither active nor inactive); the mix of calls is not that of the screen. For part of these data: A potency beside an inconclusive call is a rough fit, not a confirmed value. Active and inactive are the calls of the source. Unless noted, the call rests on the fitted dose curve; in most records, active means well fitted curve in the direction sought with a large enough effect; inconclusive means small, poorly fitted or top-dose-only effect, or another doubt; inactive means no such curve, though single readings can be large; an effect the other way counts as inactive or inconclusive.

Columns and labels:
[1] = OV-SAHO Cancer Cell Toxicity qHTS against the NCATS CANVASS Library (AID 1347348); conditions: OV-SAHO viability, CellTiter-Glo luminescence, 72 h; series mostly up to 38.3 µM; further: nearly all actives have a fitted effect of over 55% in size
How it was run: (§1)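 Viability was assessed by adding CellTiter-Glo reagent to treated cultures and reading luminescence after 15min at room temperature. Treatment lasted 72 h at 37 degrees C/5% CO2, using an 11-point series on 1000 cells/well.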

[2] = Vero-766 cells viability qHTS against the NCATS CANVASS Library: Counterscreen for Zika virus inhibition assay (AID 1347394); further: nearly all actives have a fitted effect of over 60% in size; further: potency means the concentration at half of the fitted maximal effect
How it was run: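 Uninfected Vero 766 (African green monkey) cells, 1000/well, attached overnight, then exposed 72 h at 37C to compounds (11-point qHTS). Viability read by CellTiter-Glo luminescence; media-only wells served as 100% inhibition.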

[3] = Redox Reaction Profiling qHTS: Assay Interference Panel against the NCATS CANVASS Library (AID 1347401); further: potency means the concentration at half of the fitted maximal effect
How it was run: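 Redox-cycling liability assessed as DTT-driven conversion of resazurin (5 uM, with 200 uM DTT, HEPES pH 7.3) to fluorescent resorufin. Fluorescence at 525/598 nm measured initially and after 15 min dark incubation.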

[4] = qHTS for inhibitors of Rabies Virus screened against the NCATS CANVASS Library (AID 1347402; calls by dose curve)
[5] = OV-KATE Cancer Cell Toxicity qHTS against the NCATS CANVASS Library (AID 1347345); further: potency means the concentration at half of the fitted maximal effect
How it was run: as §1

[6] = HPAF-II Cancer Cell Toxicity qHTS against the NCATS CANVASS Library (AID 1347346); further: potency means the concentration at half of the fitted maximal effect; nearly all actives have a fitted effect of over 55% in size
How it was run: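 Cytotoxicity read-out was CellTiter-Glo luminescence after 72 h at 37 degrees C exposure of HPAF-II cells (1000/well) to compounds in an 11-point titration.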

[7] = UWB1.289 Cancer Cell Toxicity qHTS against the NCATS CANVASS Library (AID 1347347); further: potency means the concentration at half of the fitted maximal effect; nearly all actives have a fitted effect of over 60% in size
How it was run: as §1

[8] = Panc-1005 Cancer Cell Toxicity qHTS against the NCATS CANVASS Library (AID 1347349); further: potency means the concentration at half of the fitted maximal effect; nearly all actives have a fitted effect of over 60% in size
How it was run: as §1

[9] = U-118MG Cancer Cell Toxicity qHTS against the NCATS CANVASS Library (AID 1347351); further: potency means the concentration at half of the fitted maximal effect
How it was run: as §1

[10] = COV-362 Cancer Cell Toxicity qHTS against the NCATS CANVASS Library (AID 1347352); further: potency means the concentration at half of the fitted maximal effect
How it was run: (§2)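 Toxicity was measured as CellTiter-Glo luminescence after 72 h exposure to an 11-point compound series. Compound was added to 1000 cells/well 4 h after seeding.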

[11] = A2780 Cisplatin Sensitive Ovarian Cancer Cell Toxicity qHTS against the NCATS CANVASS Library (AID 1347353); further: potency means the concentration at half of the fitted maximal effect; nearly all actives have a fitted effect of over 60% in size
How it was run: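 Cisplatin-sensitive A2780 ovarian cells (750/well) received compound in 11 concentrations, and were incubated 72 h at 37 °C. ATP content was measured by ATPLite luminescence; bortezomib served as control.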

[12] = UWB1.289-WTBRCA1 Cancer Cell Toxicity qHTS against the NCATS CANVASS Library (AID 1347354); further: potency means the concentration at half of the fitted maximal effect
How it was run: as §2

[13] = KB-8-5-11 Cancer Cell Toxicity qHTS against the NCATS CANVASS Library (AID 1347364); further: potency means the concentration at half of the fitted maximal effect; nearly all actives have a fitted effect of over 75% in size
How it was run: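 Viability read as CellTiter-Glo luminescence after 72 h at 37 °C, 5% CO2. 11-point compound series on 500 KB-8-5-11 cells/well in DMEM/10% FBS. Follow-up plating included 1 uM tariquidar in the medium.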

[14] = KB-3-1 Cancer Cell Toxicity qHTS against the NCATS CANVASS Library (AID 1347366); further: potency means the concentration at half of the fitted maximal effect; nearly all actives have a fitted effect of over 75% in size
How it was run: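 KB-3-1 cells (500 cells/well) in DMEM + 10% FBS were treated with compounds for 72 hr at 37C, 5% CO2. Viability was read as CellTiter-Glo luminescence after 10 minutes at room temperature.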

[15] = MCF7 Cancer Cell Toxicity qHTS against the NCATS CANVASS Library (AID 1347369); further: potency means the concentration at half of the fitted maximal effect
How it was run: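 MCF7, 500 cells/well; cpds 11-pt qHTS; 72 hr, 37C/5% CO2; CellTiterGlo ATP luminescence.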

[16] = J3T Cancer Cell Toxicity qHTS against the NCATS CANVASS Library (AID 1347371); further: potency means the concentration at half of the fitted maximal effect
How it was run: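 Cytotoxicity read as CellTiterGlo ATP luminescence after 72 h incubation (37C, 5% CO2) of J3T canine glioma cells (500/well) with an 11-point compound series.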

[17] = qHTS for Inflammasome Signaling Inhibitors: IL-1-beta AlphaLISA screen against the NCATS CANVASS Library (AID 1347379)
How it was run: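 Secreted IL-1B from human THP-1 cells quantified by AlphaLISA 16 hr after compound addition (final up to 57.5 uM). A 1 hr compound pretreatment preceded inflammasome activation with 250 ng/mL LPS plus 1.25 mM ATP (final).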

[18] = qHTS for Activators of p53 Stress Response Pathway screened against the NCATS CANVASS Library (AID 1347388); further: potency means the concentration at half of the fitted maximal effect
How it was run: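 Beta-lactamase reporter driven by p53 response elements in HCT-116 cells, read as the 460 nm/530 nm emission ratio after CCF4 loading, following 16 h of exposure to an 11-point series. Cell viability was measured in the same wells by CellTiter-Glo luminescence.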

[19] = qHTS assay for small molecule disruptors of mitochondrial membrane potential screened against the NCATS CANVASS Library (AID 1347389)
How it was run: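 Mitochondrial membrane potential in HepG2: 1 h compound treatment (11-point concentration series), 30 min m-MPI dye at 37C, then dual fluorescence of J-aggregates (ex 540/em 590) and monomers (ex 490/em 535); lower red/green ratio indicates depolarization.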
Tags describe the fitted curve by direction and shape.

In the case of CCC[C@H]1CC[C@H]2[C@H](C)CCC[C@H]2N1, the Potency [1] is reported as “inactive”, the Potency [2] is reported as “inactive” and the Potency [3] is reported as inconclusive: 0.383 µM [activator, full curve, poor fit]. The Potency [4] was “inactive”.

With CC[C@@H]1CN2CCc3c([nH]c4cccc(OC)c34)[C@@H]2C[C@@H]1/C(=C\OC)C(=O)OC the Potency [5] was inconclusive: 16.7 µM [cytotoxic, partial curve, poor fit], the Potency [6] was inconclusive: 29.8 µM [cytotoxic, single point] and the Potency [7] was inconclusive: 14.9 µM [cytotoxic, partial curve]. For the same compound, the Potency [8] was inconclusive: 21.1 µM [cytotoxic, single point], the Potency [9] was inconclusive: 14.9 µM [cytotoxic, partial curve] and the Potency [10] was inconclusive: 13.3 µM [cytotoxic, partial curve, poor fit]. For the same compound, the Potency [11] was inconclusive: 37.2 µM [cytotoxic, single point], the Potency [12] was inconclusive: 29.8 µM [cytotoxic, single point] and the Potency [13] was inconclusive: 29.6 µM [cytotoxic, single point]. The Potency [14] was inconclusive: 37.2 µM [cytotoxic, single point], the Potency [15] was inconclusive: 33 µM [cytotoxic, single point] and the Potency [16] was inconclusive: 33.2 µM [cytotoxic, single point]. The Potency [17] was inconclusive: 43.2 µM [inhibitor, single point], the Potency [18] was inconclusive: 33.1 µM [activator, partial curve, poor fit] and the Potency [19] was active: 4.67 µM. The Potency [2] was inconclusive: 2.95 µM [cytotoxic, partial curve, poor fit] and the Potency [3] was inconclusive: 3.83 µM [activator, full curve].
